# Laboratory results as given in paper PMC12136788.
# The list shows a part of the results.
# T1: UNK ZnF1-6 (called full-length) (human, UniProt Q9C0B0 30-357)
# T1 sequence: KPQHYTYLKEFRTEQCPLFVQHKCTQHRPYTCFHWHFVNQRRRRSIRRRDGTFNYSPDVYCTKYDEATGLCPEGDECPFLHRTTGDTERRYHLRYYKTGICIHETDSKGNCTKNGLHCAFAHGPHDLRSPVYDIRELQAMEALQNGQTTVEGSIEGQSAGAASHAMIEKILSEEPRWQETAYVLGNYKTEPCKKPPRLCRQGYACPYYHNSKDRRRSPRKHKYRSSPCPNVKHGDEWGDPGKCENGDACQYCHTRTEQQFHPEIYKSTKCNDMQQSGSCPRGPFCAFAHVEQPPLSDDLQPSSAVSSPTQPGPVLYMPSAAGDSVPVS
# B1: ENSG00000198589:be:win_7651|CDS|ENSG00000198589|bound_else_gene|NA|bound_elsewhere_windowed (ssRNA)
# RNA: GGGAGUUCUACAGUCCGACGAUCGACCAGCCAUACCAGCUGCCAGUGGAAAUCGAUCCUCUCAUAGCCAGCAAUACAGGAAUGCACAGGAGGCAAAUCACUGACCUUUUAGACCAAAGUAUUCAAGUGCAUUCCCAGUGCUUUCAACAGAGGAUUGAGCAUCA
# B2: chr7:39987650:39987751:+|CDS|ENSG00000065883|unk|FALSE|unique (ssRNA)
# RNA: GGGAGUUCUACAGUCCGACGAUCUCUAGGCAUUCAAGAUCUCGUAGCAGGCACAGAUUGUCUAGAUCCAGAAGUCGUCAUUCUAGUAUUUCUCCUAGCACACUAACUCUGAAGAGUAGCCUGGCAGCUGAAUUGAACAAGAAUCAACAGAGGAUUGAGCAUCA
# B3: chr1:48532853:48534172:-|three_prime_utr|ENSG00000186094|control|control|control (ssRNA)
# RNA: GGGAGUUCUACAGUCCGACGAUCGUCUUAUGGGGACAGGAGCAUGCAUUUUCUGCUGGGGAAUGAAAUUAAUCACUCUUCUCUAGCUUCCAAGGAUUUGUGGAUUAAUGCAUAGGCUAGUGAAAGGGAAGGGAUACAAUGAGACAACAGAGGAUUGAGCAUCA
# B4: chr19:42297191:42297292:-|CDS|ENSG00000079462|unk|total|mutant (ssRNA)
# RNA: GGGAGUUCUACAGUCCGACGAUCCCGACAGGUGAACGAGCUGGUACGGGCGGCACUGGCUGGCCACCCUCGGGCCCACUUCCCCGAUGCCGACCCUGGCUUUGUGCACUCAGAUGGCACCAUCAGCCAUCAUGACAUGUAUGACAACAGAGGAUUGAGCAUCA
# B5: chr22:29695108:29695209:+|3pUTR|ENSG00000186575|msi1|total|mutant (ssRNA)
# RNA: GGGAGUUCUACAGUCCGACGAUCGUGUGUGUGUGUCUUGCACUCCAGAGCUGACCUCCACCGCCCAGCCUGGGAAGUCAUUGCCGGGAGUGAGACACUGAAGCCCUGAGAAGCCAGUGCCAUCAUCCCCACCCCGCCCAGGGUCAACAGAGGAUUGAGCAUCA
# B6: ENSG00000107863:be:win_2251|CDS|ENSG00000107863|bound_else_gene|NA|bound_elsewhere_windowed (ssRNA)
# RNA: GGGAGUUCUACAGUCCGACGAUCUUAAGGCAUCAGUCUUACAUCUUGGCAGUAAAUGACCAGGAGACCGGGUCAGACACUACCUGCUGGCUGCCCAAUGAUGCACGUCGAGAGGUCCACAUAAAAAGAAUGGAGGAAAGAAAACAACAGAGGAUUGAGCAUCA
# Biological target: T1, UNK ZnF1-6 (called full-length)
# Experiment: nsRBNS (natural sequence RNA bind-n-seq); RBNS binding buffer (assumed for nsRBNS): 25 mM Tris pH 7.5, 150 mM KCl, 3 mM MgCl2, 0.01% Triton X-100, 500 ug/ml BSA, 20 U/ml SUPERase-In, 4 C; UNK is unkempt and MSI1 is Musashi-1; names of the RNAs are library labels; protein concentration not given here; high values mean tight binding
row,Binder,binding signal
1,B1,1.05 enrichment R
2,B2,0.538 enrichment R
3,B3,0.93 enrichment R
4,B4,0.644 enrichment R
5,B5,0.749 enrichment R
6,B6,0.801 enrichment R
